Data taken from paper PMC3448977 (Biochemistry, 2012).

T1: Human BMP-9 (human, UniProt Q9UK05 320-429)
T1 sequence (looked up): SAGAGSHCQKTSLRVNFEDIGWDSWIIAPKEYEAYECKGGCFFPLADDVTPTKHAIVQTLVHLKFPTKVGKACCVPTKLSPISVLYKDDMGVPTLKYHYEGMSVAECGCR

B1: Alk1 extracellular domain (Alk1-ED), wild type (domain or fragment)
chain: not shown
B2: Alk1 extracellular domain E54A (domain or fragment)
chain: not shown
B3: Alk1 extracellular domain E54F (domain or fragment)
chain: not shown
B4: Alk1 extracellular domain H52A (domain or fragment)
chain: not shown
B5: Alk1 extracellular domain N50A (domain or fragment)
chain: not shown
B6: Alk1 extracellular domain R26A (domain or fragment)
chain: not shown
B7: Alk1 extracellular domain R53A (domain or fragment)
chain: not shown
B8: Alk1 extracellular domain R53D (domain or fragment)
chain: not shown
B9: Alk1 extracellular domain R59A (domain or fragment)
chain: not shown

Target: T1, Human BMP-9
Assay: SPR

**Q.** With B1 as the binder, how does the Kd read?
**A.** The Kd was 29 nM.

**Q.** For B2, which Kd is on record?
**A.** Its Kd is 490 nM.

**Q.** With B3 as the binder, how does the Kd read?
**A.** Its Kd is 20 nM.

**Q.** For B4, which Kd is on record?
**A.** Its Kd is 250 nM.

**Q.** How did the Kd turn out when B5 was run?
**A.** The Kd was 260 ± 10 nM.

**Q.** With B6 as the binder, how does the Kd read?
**A.** Its Kd is 31 nM.

**Q.** Which Kd does the source give for B7 here?
**A.** The Kd was 87 nM.

**Q.** For B8, which Kd is on record?
**A.** Its Kd is 430 ± 60 nM.

**Q.** Which Kd does the source give for B9 here?
**A.** The Kd was 300 nM.
